Whole data set: some 33,000 sequences, median “E-score (-0.5 to 0.5)” near -0.041, cut for the highest 2% near 0.37. The list shows a part of the results.
target: T1, Ecm22 (UniProt Q05958); test: PBM E-score (8-mer binding enrichment) (E-score (-0.5 to 0.5)); higher = stronger / more preferred TF binding; most listed sequences are background and not binding sites; details: protein concentration: 200 nM; construct: GST-full length
T1 sequence: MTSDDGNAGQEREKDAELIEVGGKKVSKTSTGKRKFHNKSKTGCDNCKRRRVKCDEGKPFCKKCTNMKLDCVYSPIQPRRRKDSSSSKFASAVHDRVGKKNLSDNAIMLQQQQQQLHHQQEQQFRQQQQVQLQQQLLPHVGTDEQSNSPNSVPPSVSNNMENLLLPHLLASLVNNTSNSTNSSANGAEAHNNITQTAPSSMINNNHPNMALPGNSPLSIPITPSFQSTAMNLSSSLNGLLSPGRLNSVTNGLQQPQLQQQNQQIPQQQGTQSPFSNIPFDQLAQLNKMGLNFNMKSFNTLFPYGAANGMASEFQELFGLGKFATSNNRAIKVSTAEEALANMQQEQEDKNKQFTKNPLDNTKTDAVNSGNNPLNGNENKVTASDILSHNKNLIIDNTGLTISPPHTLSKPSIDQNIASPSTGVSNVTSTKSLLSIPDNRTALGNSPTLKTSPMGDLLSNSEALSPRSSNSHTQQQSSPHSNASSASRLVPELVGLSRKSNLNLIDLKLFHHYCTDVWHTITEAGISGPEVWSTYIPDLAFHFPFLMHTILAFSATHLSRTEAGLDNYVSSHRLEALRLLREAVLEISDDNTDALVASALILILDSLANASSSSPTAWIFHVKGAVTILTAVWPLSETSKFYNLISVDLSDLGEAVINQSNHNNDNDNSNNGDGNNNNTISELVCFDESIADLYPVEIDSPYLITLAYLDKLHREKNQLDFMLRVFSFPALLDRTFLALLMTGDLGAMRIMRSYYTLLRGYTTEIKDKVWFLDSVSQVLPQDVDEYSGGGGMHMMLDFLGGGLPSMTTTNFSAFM
Protocol: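 Universal 'all 10-mer' protein binding microarrays (Agilent AMADID 015681) probed with GST-tagged S. cerevisiae TFs (full-length or DBD) made by in vitro transcription/translation (PURExpress), about 100-200 nM. Bound TF was detected with fluorescent anti-GST. Each ungapped 8-mer (which stands for itself and its reverse complement) is scored by the PBM enrichment score (E-score), a modified Wilcoxon-Mann-Whitney statistic from -0.5 to +0.5, computed with the Universal PBM Analysis Suite. Scale: above 0.35 generally sequence-specific binding.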

Point of comparison: AGCACTCG, “PBM E-score” value 0.0415. Against it:
- ATTAGCTC — lower, 0.0201
- CCGCACCG — higher, 0.178
- ATAACCTA — lower, -0.0165
- CTTGCCGA — lower, -0.0634
- ACCGTGAA — lower, -0.144
- AGCCTACA — lower, -0.301
- AGGGCATG — lower, -0.219
- GGGCCTGA — lower, -0.174
- CACTCGCC — higher, 0.0536
- CGTACAGA — higher, 0.382
- GACGAATA — lower, 0.0261
- AATATGAG — higher, 0.0443
- ATCTTCAA — lower, -0.215
- AAGGAATG — lower, 0.00273
- CGTAATCC — higher, 0.142
- GAGAGACA — lower, -0.234
- ACTGTACC — lower, -0.0754
- AGCCGCAG — lower, -0.0476
- AGATAAGG — lower, -0.0977
- ACAAGCCT — lower, -0.0972
- AGGTATAT — lower, -0.117
- TAGTGACA — lower, -0.173
- GGTAGCTA — lower, -0.142
- GTCTGCAA — lower, -0.237
- AGCGACCC — higher, 0.203
- ATTGTCAG — lower, -0.134
- AGGGGATC — lower, -0.101
- CACTGGCA — lower, -0.302
- CGGAGGCC — lower, -0.117
- CTATTGAA — lower, -0.00223
- ATATTCTG — lower, -0.06
- CCAGCTCG — higher, 0.224
- TCATACAA — lower, -0.115
- CTTACGCA — lower, 0.0308
- AATACGTC — higher, 0.0846
- CTAAGGTA — lower, -0.116
- ACTTGTCC — higher, 0.0924
- ATTAGCGA — higher, 0.3
- ATTACATC — higher, 0.134
- CTAAGGAC — lower, -0.163
- TTAAGTAA — lower, -0.141
- GACAAAAC — higher, 0.0451
- ATTTATGC — lower, -0.0278
- CAGGTTCG — higher, 0.159
- AGACTACA — higher, 0.106
- AATCGTCT — higher, 0.0505
- ACGCTTAG — higher, 0.149
- AGGCGTCA — lower, -0.1
- AGTGTATG — higher, 0.13
- AAGCATTC — lower, -0.157
- ATTCCGAG — higher, 0.184
- CGGGGACC — lower, -0.041
- CGCTCCCC — higher, 0.149
- TCCTCAAA — lower, -0.248
- GGCCGACC — lower, -0.224
- TATGCAAA — lower, 0.00949
- AAATGCTA — lower, 0.0254
- AATGCATC — lower, -0.0805
- AACGGGCA — higher, 0.287
- AGAATATA — lower, 0.032
- AGGGTAAT — lower, -0.158
- ACGATTCA — higher, 0.319
- CCTCGTCA — higher, 0.232
- ACTCAGTG — lower, -0.17
- CCCTGTAA — lower, -0.193
- CTAGTTGA — lower, -0.225
- CTCACTAC — lower, -0.0354
- AAAAAGCT — lower, -0.193
- AATTAGAG — lower, -0.152
- AGGTTAAA — lower, -0.0746
- ACACAGAC — lower, -0.0717
- CGAGGGCG — higher, 0.131
- ACCATATC — higher, 0.138
- ATATATGG — lower, -0.0801
- AGTCTAAG — lower, 0.00418
- CAGCTTGA — lower, -0.252
- GCAGTTCC — lower, -0.0351
- AGTACATA — lower, -0.0214
- ATTCTCAA — lower, 0.0315
- AGTCCTGG — lower, -0.232
- AGGAAAGA — lower, -0.217
- ACCCGTCG — higher, 0.0875
- AACTTTGA — lower, -0.18
- CGCATCTC — lower, -0.0114
- TCCTCGCA — higher, 0.231
- CAAAGATG — lower, -0.154
- CCATCCTC — lower, -0.00148
- GACCCATC — lower, -0.0195
- GAAACACA — lower, -0.0325
- CGCGGAAA — lower, 0.035
- CAGCGACA — lower, -0.00433
- CGCAGAAC — higher, 0.131
- CTGCTGCA — lower, -0.0858
- CATTTCGG — lower, -0.0209
- CCACTTCC — lower, 0.0365
- ACGGATAA — higher, 0.159
- ATCAAGAC — lower, -0.0718
- AGTTTGAC — lower, 0.0023
- CCACGCTA — lower, -0.0414
- CAGTGTCA — lower, -0.0961
- CTCTACGA — higher, 0.37
- TACATAGA — lower, -0.197
- AGCCTCCG — lower, -0.0869
- AAGTCATA — lower, -0.0414
- GATACTAA — higher, 0.0504
- GATTGGAA — lower, -0.0505
- AACCGGCG — higher, 0.163
- GTCTCACA — lower, -0.113
- AGAGGGGA — lower, -0.201
- GCAACCGC — lower, -0.126
- ATGGAAAG — lower, -0.0344
- ACGCAAGA — lower, 0.0257
- ACAGGTTG — lower, -0.14
- CCGTTTCA — higher, 0.135
- CGCAACAC — lower, -0.0561
- GCGCAACC — lower, -0.142
- CACGGTAA — lower, -0.143
- GCGCATAC — higher, 0.0841
- GGTCTAGA — higher, 0.161
- CATTACGG — lower, -0.0743
- AATTATTA — higher, 0.0887
- CTCCCCAA — lower, -0.228
- CCGATATA — higher, 0.0959
- GTTCCCAA — higher, 0.165
- CGCTAGCC — lower, -0.299
- CTCCTCAA — lower, -0.036
- ACGTCTAA — lower, -0.0766
- CCTTTTCG — higher, 0.235
- CCGTTCAG — higher, 0.334
- AGTTGCCG — lower, -0.023
- CTTAGGCC — lower, -0.211
- ATCTAAAG — lower, -0.0827
- ACACAGGC — lower, -0.0291
- GAACGTTA — higher, 0.205
- GGATACTA — lower, -0.144
- AAGAGTGG — lower, -0.00177
- GATCCCCC — lower, -0.217
- GGAACCAA — lower, -0.114
- CCGTCCAG — lower, 0.00866
- TAACGCAA — higher, 0.144
- CCGCGTAG — lower, -0.00811
- GCTAAGCC — lower, -0.254
- GATGATGC — lower, -0.0768
- GTGCCATA — lower, -0.0634
- AGTGCAAC — lower, -0.0754
- AAACGCAA — higher, 0.139
- GTGTGGTA — lower, 0.0384
- GTGCTCGA — lower, 0.0388
- CGCAATAC — higher, 0.06
- GAGCATCC — lower, -0.0877
- GAGATGAC — lower, -0.165
- GGTCGATA — lower, 0.0384
- CGACTCCA — higher, 0.0509
- ATACGGCC — higher, 0.388
- CGGACATA — higher, 0.155
- CCCCATCG — higher, 0.125
- GTGGTGCA — lower, -0.177
- GCCGATCC — higher, 0.111
- GCCAAATA — higher, 0.0601
- CCATCTGC — lower, 0.0169
- AACCAGAC — lower, 0.00521
- GACAGCCC — lower, -0.157
- CCGTAGGC — lower, -0.192
- ACATGCAC — lower, 0.0253
- CTGATTAC — lower, -0.0481
- GGATAGTA — the same, 0.0415
- GTCACCGA — higher, 0.0538
- TATTAGCA — higher, 0.0512
- CTGTATTA — lower, -0.0817
- AGTCTCAT — lower, -0.19
- CACATGTA — lower, -0.0246

— the supplement of paper PMC3334620
